The other results are listed elsewhere or left out.
tested on: PF3D7_0420300 AP2 domain 1 (GST-tagged); assay: gcPBM binding intensity (ln(normalized median fluorescence intensity)); higher = stronger DNA binding
Summary of the method: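 The binding buffer was 1× PBS containing 1% milk, 0.2 mg/ml BSA, 0.5% salmon testes DNA and 0.03% Triton X-100. In it, GST-tagged P. falciparum DNA-binding domains expressed in E. coli were applied for 1 h to an Agilent 4 × 180k array of primer-extended double-stranded 36-bp intergenic genomic probes plus negative controls. Binding intensity, read with Alexa488 anti-GST antibody and a 488 nm scan, is the highest Masliner-normalised natural-log median intensity across replicate spots of either probe orientation.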

| Sequence | gcPBM binding intensity (ln) |
| --- | --- |
| TAGAATATGTTTAGTTGTACAAAACAAAATGGAATT [XGTACX_site5293] | 9.17 |
| CACATAAAAAAATAAACACACATATGTATATATATA [CACACA_site3177] | 9.75 |
| ATTTATTTTTTGTGTTCACACATTAGTATCATCTAT [CACACA_site5274] | 9.49 |
| TTTTTTTTTCGCTTTTGTACACATTTTATAGAACAG [XGTACX_site2416] | 9.4 |
| TATTATATATATGGAAGTACAGGTATATCGTTTTTC [XGTACX_site3771] | 9.29 |
| TTTTCCCTTAACCTCTGTACATATAATTTTCTTTCC [XGTACX_site4180] | 9.3 |
| AAATATTTTTTAATTGTTCACTTGGTGGATCATTAA [CACACA_negctrl_site922] | 8.99 |
| TATCCATTATTTAAAAGTACAAAAAACGATTTACAC [XGTACX_site2979] | 9.27 |
| ATTTTTTTTTTTTTTTCATGAAATTTTTTTTTTTTT [CACACA_negctrl_site1069] | 9.24 |
| ATATATTTATTATTAGGTACACATATATATATATAT [XGTACX_site5045] | 9.36 |
| TTAAAAAAAAATAAAGGTACACGGAGAAATCCTTTT [XGTACX_site7509] | 9.18 |
| AACCACCACACCATCACACATAAGATTAGACGAGTA [CACACA_site6063] | 9.25 |
| TGTAGTAATGCTTATTGTACATATACATTTCTTACA [XGTACX_site219] | 9.28 |
| TTATATAGAATTAATTTCTTTTTTTTCTTTTTTAAA [CACACA_negctrl_site1308] | 8.79 |
| TATAATGGTAAAAACACACAAATATGAAGATGTTAA [CACACA_site6479] | 9.3 |
| GATGGGCAAATTTACTGTACTTTTATAATATTTTTT [XGTACX_site4830] | 9.47 |
| AAAATTGTGAAAGGGAAGATGATCAAATTGTTAAGG [CACACA_negctrl_site1492] | 9.37 |
| AAAAAAAATTATATTTGTACGCATTAAAAAATCTAA [XGTACX_site1616] | 8.88 |
| GTACCTATAAATATTACACACATTTTCATTTTTAAC [CACACA_site7022] | 9.75 |

| Sequence | gcPBM binding intensity (ln) |
| --- | --- |
| CTTAAAAACAAAAATGCACACATAATAAGCATATGT [CACACA_site9149] | 9.43 |
| ATTAAACTCATTAAGAGTACAGATAACATTAAAGTA [XGTACX_site8697] | 9.19 |
| TGAAATTAGATATATACACACATATAGATTTATATG [CACACA_site7619] | 9.44 |
| AATATCACATTCCACGGTACACACTAAAAGAAAAAT [XGTACX_site7653] | 9.75 |
| ATAAATACGATTAATTAGGTTTGTATAAATTAAATT [GTGCAC_negctrl_site635] | 9.26 |
| TCATGTAGTAAAAACTGTACAAATTATTTATCATGT [XGTACX_site1727] | 9.24 |
| ATAACTTTTGCGCGTACACACATTTATCCTCTTTAT [CACACA_site209] | 9.96 |
| CTATAATAGAAGTGTACACACATATTTATGTCTGTA [CACACA_site7462] | 9.45 |
| TTTTCTTTATTATAATGTACTCACAAATAAATATAA [XGTACX_site7298] | 8.98 |
| TTTCATTTTAGAAGTACACACAAAAAATAAAATAAT [CACACA_site2141] | 9.52 |
| ATAGGATGTTTGCACTGTACCAAAAAATGAGCTGCA [XGTACX_site2825] | 9.09 |
| ACTTTTTTGAACAACGTGCACGTATTCATAACAAAA | 8.96 |
| ATCAGATATATATATTGTACATTTATATATAAATCA [XGTACX_site1960] | 9.12 |
| ATTAAAAATTATATTTTATAAAAATTAAAAGAAATA [CACACA_negctrl_site65] | 8.81 |
| AAAGTATACAATGACGCATGCATATATATATACATA [TGCATGCA_site429] | 9.35 |
| ATTTATTTATCTAGCTATTCACCATTTTCTTTTGTT [CACACA_negctrl_site1259] | 9.6 |
| TGTCCTTATTGGCACACACACATATAAGAAATTTAA [CACACA_site5724] | 9.55 |
| TATTTTTTCTTAAACACACACATATAGATTTATAAC [CACACA_site7354] | 9.5 |
| TTTTTTAAAGCCTGTTCATCATCCTTACCTATCAAC [GTGCAC_negctrl_site452] | 9.08 |

| Sequence | gcPBM binding intensity (ln) |
| --- | --- |
| ATATGGAATGATCATAGTACATAATTTAAAATTTTA [XGTACX_site3568] | 9.19 |
| CTAATTCGTATATGCTGTACCTTTTTCTTACGACTA [XGTACX_site4392] | 9.51 |
| ACCCTATTTATATATACACACACATATATAAATAAA [CACACA_site8980] | 9.74 |
| AACATATATAATATTTGTACTTATATACAAAATATG [XGTACX_site7502] | 9.16 |
| TAGAAAATCAGTTAAACACACACATAAAAAAAAAAA [CACACA_site8933] | 9.78 |
| TATATAATATATATATGTACACATTTGCAAACAATG [XGTACX_site6941] | 9.25 |
| TTCTTATTTGTACTAGTGCAATAGAAAATAAATAAA [GTGCAC_site9731] | 8.96 |
| GAATATGTAAAGAAAGGTACACATGAAAATATGTGT [XGTACX_site446] | 9.42 |
| ATGAATTAATCTAATCGTACAATAAGCATTATTATA [XGTACX_site2571] | 9.03 |
| TGTACCTACAAAATATGATATATTTTTATAAATTGT [XGTACX_negctrl_site498] | 9.09 |
| TATATATATATACATACATGCATATATATATATATA [TGCATGCA_site513] | 9 |
| AATATATCTTATTTAACACACACAAAGAAAATAGAA [CACACA_site9242] | 9.98 |
| TGTTATCAGAAAGCACGTACATATAATTATATATTC [XGTACX_site4188] | 9.28 |
| AATACAATAAAAAAAAGTACACATGTATAAAAAATT [XGTACX_site8270] | 9.82 |
| AAAAAAAAAAAAAGTACACACATACAGATAAATATA [CACACA_site5067] | 9.66 |
| ATAAATTGATTCAACACACACATATGTAGGAAGTTA [CACACA_site3253] | 9.63 |
| TTTTTTAAATTGGTAGTGCAATATGATTGAACAAAA [GTGCAC_site9715] | 8.95 |
| GGGTATACCAATATAACACACATATATATATAATAT [CACACA_site450] | 9.51 |
